From article PMC4336329 (PLoS ONE, 2015)
Hit rate of the full screen: of about 310,000 compounds, about 14,000 (4.5%) showed an effect of 50% or more. Effects have a minus sign here. This is one part of the list.

The molecules below were run against human ether-à-go-go-related gene (hERG) potassium channel (human, UniProt Q12809) (assay: primary screen, population patch clamp on CHO cells stably expressing hERG).
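Further: peak tail current of the secondary pulse compared with the same well before compound.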

Sequence of human ether-à-go-go-related gene (hERG) potassium channel (Q12809 whole entry, looked up): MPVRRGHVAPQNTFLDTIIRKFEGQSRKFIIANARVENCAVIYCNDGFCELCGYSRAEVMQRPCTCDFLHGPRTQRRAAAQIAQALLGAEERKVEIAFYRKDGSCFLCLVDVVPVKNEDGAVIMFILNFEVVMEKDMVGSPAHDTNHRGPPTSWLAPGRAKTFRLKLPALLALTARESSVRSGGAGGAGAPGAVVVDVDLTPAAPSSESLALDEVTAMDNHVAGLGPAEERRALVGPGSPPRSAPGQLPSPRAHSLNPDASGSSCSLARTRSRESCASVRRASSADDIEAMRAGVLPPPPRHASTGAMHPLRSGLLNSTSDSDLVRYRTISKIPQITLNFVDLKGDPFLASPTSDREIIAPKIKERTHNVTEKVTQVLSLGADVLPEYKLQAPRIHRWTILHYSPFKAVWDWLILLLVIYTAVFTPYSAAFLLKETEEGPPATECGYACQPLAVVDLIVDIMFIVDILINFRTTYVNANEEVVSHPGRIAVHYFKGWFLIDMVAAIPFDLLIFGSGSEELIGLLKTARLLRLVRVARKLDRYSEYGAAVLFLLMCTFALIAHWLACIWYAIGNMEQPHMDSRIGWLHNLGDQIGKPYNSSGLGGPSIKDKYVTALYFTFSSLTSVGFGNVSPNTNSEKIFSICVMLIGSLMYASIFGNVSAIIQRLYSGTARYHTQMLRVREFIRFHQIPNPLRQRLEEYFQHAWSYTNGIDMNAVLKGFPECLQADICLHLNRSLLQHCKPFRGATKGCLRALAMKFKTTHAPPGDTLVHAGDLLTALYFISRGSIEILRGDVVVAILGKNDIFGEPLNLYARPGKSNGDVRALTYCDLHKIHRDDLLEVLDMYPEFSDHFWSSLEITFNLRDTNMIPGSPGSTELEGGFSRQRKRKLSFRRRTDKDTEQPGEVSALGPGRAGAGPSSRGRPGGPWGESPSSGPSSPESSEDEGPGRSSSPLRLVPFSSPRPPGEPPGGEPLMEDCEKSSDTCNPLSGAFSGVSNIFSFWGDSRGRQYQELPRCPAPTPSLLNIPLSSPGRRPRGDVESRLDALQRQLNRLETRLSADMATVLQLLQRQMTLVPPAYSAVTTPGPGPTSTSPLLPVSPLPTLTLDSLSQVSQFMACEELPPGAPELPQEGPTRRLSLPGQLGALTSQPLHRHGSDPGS

SMILES | hERG current change (%, negative = inhibition) at 10uM [%]
O=C(CNC1CCCCCC1)Nc1ccccc1N1CCCCC1.O=C(O)C(=O)O | -30.5
Cc1nn(-c2ccccc2)cc1/C=N/O | 0.476
O=C(COc1ccc(-c2ccccc2)cc1)Nc1cccnc1 | 11.6
COC(=O)c1ccc(/C=N/NC(=O)c2ccccc2Cl)cc1 | 2.11
O=C(NCC12CC3CC(CC(C3)C1)C2)c1nn2cccnc2c1Cl | -36.5
CC(C)c1nc2c(c(=O)n(C)c(=O)n2C)n1C | -1.37
CC(C)N(CCNC(=O)c1ccc(NC2=NC3CS(=O)(=O)CC3S2)cc1)Cc1ccco1 (stereo not drawn) | 17.1
CCOc1ccc(NC(=O)c2ccccc2NS(=O)(=O)c2ccc(F)cc2)c([N+](=O)[O-])c1 | 13.7
CC(C)(C)n1nnnc1C(c1ccncc1)N1CCN(c2ccc(O)cc2)CC1 (stereo not drawn) | -4.64
CC1=C(C(=O)OCc2ccccc2)C(c2ccc(Cl)cc2)NC(=O)N1CCCCCC(=O)O (stereo not drawn) | -9.98
Cc1cc(O)c(C(=O)/C=C/c2c(F)c(F)c(F)c(F)c2F)c(=O)o1 | 21.4
CCC(C)N(C(=O)CN1C(=O)NC2(CCc3ccccc32)C1=O)C1CCS(=O)(=O)C1 (stereo not drawn) | -3.41
Cc1cc(C)cc(NC(=S)NCCSc2ccc(Cl)cc2)c1 | 7.18
COc1ccccc1C(=O)N=C1SC2CS(=O)(=O)CC2N1c1ccccc1 (stereo not drawn) | 20.8
COc1ccc(N(C(=O)CNC(=O)c2cccs2)C(C(=O)NC2CCCC2)c2ccncc2)cc1 (stereo not drawn) | -7.12
N#CCCN(C(=O)COC(=O)c1ccc2c(c1)NC(=O)CS2)c1ccc2c(c1)OCCO2 | -22.8
O=C(N/N=C\c1ccc(OC(=O)c2ccco2)cc1)c1ccc(Cl)cc1 | -0.186
Nc1ccc(C(=O)N/N=C\c2ccc(OC(=O)c3ccccc3Cl)cc2)cc1 | 19.9
COc1ccc(-c2cc(-c3ccccc3)c(C#N)c(SCC(=O)Nc3ncc(C)s3)n2)cc1 | 7.28
COc1ccc(C(=O)CCC(=O)O)cc1 | 4.56
O=S(=O)(c1ccc(N2CCOCC2)nc1)N1CCOCC1 | 1.96
CCc1ccc(NC(=O)c2ccc(-n3cncn3)c([N+](=O)[O-])c2)cc1 | -24.1
COc1cc2c(cc1OC)C(c1ccccc1F)NCC2 (stereo not drawn) | 8.75
N#Cc1ccccc1NC(=O)CC1c2ccccc2Oc2ccccc21 | -2.23
COc1ccc(NC(=O)C(=O)Nc2cccc3cccnc23)c(OC)c1 | 19.4
O=C(O)C(=O)O.c1ccc(COc2ccc(OCCCNC3CCCC3)cc2)cc1 | -57.1
Cc1ccc(S(=O)(=O)NCCNC(=O)N2CCOCC2)cc1 | 6.05

SMILES | hERG current change (%, negative = inhibition) at 10uM [%]
CC(C)COc1nc2ccccc2nc1N1CCN(C)CC1 | -72.9
CC(=O)Nc1cccc(C(=O)OCC(=O)NC(C)c2ccc(F)cc2)c1 (stereo not drawn) | 13.7
OCCNc1nc2nonc2nc1NCCO | 11
COc1cccc2cc(/C(=N/O)c3ccccc3)oc12 | -10.9
CCOC(=O)Cn1cnc2scc(-c3ccccc3)c2c1=O | 11.3
Cc1ccc(S(=O)(=O)NC(CC(=O)O)c2ccccc2)cc1 (stereo not drawn) | 15.5
O=C(NCc1ccccc1F)C1CCCN1C(=O)Nc1ccccc1 (stereo not drawn) | 7.14
O=C(CSc1nnc(CNC(=O)c2cccc(C(F)(F)F)c2)o1)NCC1CCCO1 (stereo not drawn) | 11.8
Cc1ccc(C(=O)Nc2cccc(NC(=O)c3ccc(C)c([N+](=O)[O-])c3)n2)cc1[N+](=O)[O-] | 2.38
CCOC(=O)/C=C1\SCC(=O)N1Cc1nnc(-c2ccccc2Br)o1 | -11.3
COCCN(C(=O)CSc1nnc(Nc2ccc(C)cc2)s1)c1c(N)n(CC(C)C)c(=O)[nH]c1=O | -7.66
CCOc1ccc(S(=O)(=O)Nc2ccc(C(=O)N/N=C(\C)c3ccc(-n4ccnc4)cc3)cc2)cc1 | -7.35
CCOc1ncccc1C(=O)Nc1cc(C(F)(F)F)ccc1N1CCOCC1 | 0.832
O=C(Nc1c(Cl)ccc2nsnc12)c1ccc([N+](=O)[O-])o1 | 5.18
COC(=O)C1=C(c2c(C)noc2C)C[C@@H]2CC[C@H]1N2C(=O)NC(C)C | 12.3
COc1ccccc1NS(=O)(=O)c1ccc(NC(=O)c2nc3nc(C)cc(C(F)F)n3n2)cc1 | -13.8
COc1ccc(NC(=O)c2ccc(Cl)nc2)cc1S(=O)(=O)N1CCCCC1 | -59
COc1ccc(C(=O)C2CCCN(Cc3cn(C)nc3-c3ccccc3)C2)cc1F (stereo not drawn) | -72.4
CCOC(=O)CSc1nc2ccsc2c(=O)n1C1CCN(C(=O)OCC)CC1 | -17.3
CC(C)(C)NS(=O)(=O)c1ccc(OCC(=O)NCc2ccco2)cc1 | 10.6
CCOC(=O)C1=C(C)NC(=O)NC1c1ccc(OCC(=O)N2CCCCC2)cc1 (stereo not drawn) | 7.81
Cc1ccc(C)c(NC(=O)C2CCCN(S(=O)(=O)c3ccc4[nH]c(=O)ccc4c3)C2)c1 (stereo not drawn) | 6.02
COc1cc(NC(=O)Cn2cnc3ccccc3c2=O)c(OC)cc1Cl | 12.7
O=C(NCCc1ccccc1)Oc1ccc(Cl)cc1 | 1.75
Cc1ccc(C)c2sc(N3CCN(C(=O)c4ccc([N+](=O)[O-])o4)CC3)nc12 | -15.1
COc1ccc(CCN(C(=O)COc2ccccc2)c2nc(-c3ccccc3)cs2)cc1OC | 1.02
COc1cccc(/C=N/Nc2nc3ccccc3[nH]2)c1O | 5.17
